Data published in PubChem BioAssay (Tox21).
Several values for one entry are separate records, joined by “and”; a condition that tells them apart may be missing. Equal values may be shown once. Inconclusive means that the source gave no clear call. Such entries were picked first, then a sample of the others. Potencies beside an inconclusive call are fits to weak or partial responses and may not hold up. Activity calls are given as the source filed them. Calls come from the whole dose curve; as a rule, active = well fitted activation curve with a large enough effect in the signal ratio in the repeat runs (not every such curve was filed as active); inconclusive = weak or mixed curves; inactive = flat fitted curve, though single readings scatter; the % refers to the signal ratio.

Experiment: qHTS assay to identify small molecule agonists of the TGF-beta/Smad signaling pathway (AID 1346859)
Settings: SBE-bla HEK293T, TGF-beta/Smad beta-lactamase reporter, 5 h; activation: at 76.8 µM (top of the series) unless noted
Excerpt: U.S. Tox21 Program National Center for Advancing Translational Sciences [NCATS] NIH Chemical Genomics Center [NCGC] U.S. Environmental Protection Agency [EPA] National Institutes of Environmental Health Sciences [NIEHS] National Toxicology Program [NTP] U.S. Food and Drug Administration [FDA] Tox21 Assay Overview: Transforming growth factor beta (TGF-beta) superfamily consists of a large number of structurally related dimeric proteins that act as hormones or local mediators in regulating a wide range of biological functions. This superfamily includes TGF-betas themselves, the bone morphogenetic proteins (BMPs) and the activins. These ligands induce oligomerization of serine/threonine receptor kinases and phosphorylate the cytoplasmic signaling molecules of Smad protein family. CellSensor SBE-bla HEK 293T cell line (Life Technologies, Carlsbad, CA), responsive to TGF-beta was used to screen Tox21 10K compound library for identification of agonists/antagonists of the Smad signaling pathway. This cell line contains a beta-lactamase reporter gene under control of the Smad binding element (SBE) stably integrated into HEK 293T cells.
Tox21 Assay Protocol Summary: SBE-bla HEK 293T cells were dispensed at 4,000/well in 6 uL of assay medium into black wall/clear-bottom 1536-well plates using a Multidrop Combi (ThermoFisher Scientific, Waltham, MA) dispenser. After the assay plates were incubated at 37 C and 5% CO2 for an overnight, 23 nL of compounds dissolved in DMSO, positive controls or DMSO only was transferred to the assay plate by a Pintool station (Kalypsys, San Diego, CA). The assay plates were incubated at 37 C and 5% CO2 for 5 hr. One uL of LiveBLAzer B/G FRET substrate (Life Technologies) was added using a Flying Reagent Dispenser (Aurora Discovery, San Diego, CA) and the plates were incubated at room temperature for 2 hr. Fluorescence intensity (405 nm excitation, 460 nm and 530 nm emissions) was measured using an Envision plate reader (PerkinElmer, Shelton, CT).
% is set by controls: 0 for no effect and ±100 for the full control effect; potency is the fitted concentration of half-maximal effect; tags give direction and shape of the fitted curve or compound fluorescence and quenching.

SMILES | activation | Potency
c1ccc2cc3c(ccc4ccccc43)cc2c1 | inconclusive: 16.7% | –
CCCCCCOC(=O)NC(=N)c1ccc(NCc2nc3cc(C(=O)N(CCC(=O)OCC)c4ccccn4)ccc3n2C)cc1 | – | inconclusive: 23.9 µM [rising, partial curve]
COc1cc(OC)cc(OC)c1 | inactive: 1.94% [at 35.3 µM] | –
CC1(C)O[C@@H]2C[C@H]3[C@@H]4CCC5=CC(=O)C=C[C@]5(C)[C@@]4(F)[C@@H](O)C[C@]3(C)[C@]2(C(=O)CO)O1 | – | inconclusive: 24.7 µM [rising, partial curve]
Cc1cc(=O)oc2cc(O)ccc12 | – | inconclusive: 38.9 µM [activator, partial curve]
Cc1c(C)c2c(c(C)c1OC(=O)CCC(=O)O)CC[C@@](C)(CCC[C@H](C)CCC[C@H](C)CCCC(C)C)O2 | – | inconclusive: 19.7 µM [rising, single point]
O=c1cc(-c2ccccc2)oc2cc(O)cc(O)c12 | – | inconclusive: 11 µM [rising, full curve]
O=C(Oc1ccccc1)c1cccc(C(=O)Oc2ccccc2)c1 | – | inconclusive: 11.6 µM [fluorescent]
c1cc(C(c2ccc(OCC3CO3)cc2)C(c2ccc(OCC3CO3)cc2)c2ccc(OCC3CO3)cc2)ccc1OCC1CO1 (stereo not given) | – | inconclusive: 32.1 µM [fluorescent, partial curve] and inconclusive: 34.6 µM [fluorescent]
CCCCCCCCCCCCCCCC | inactive: 0.118% | –
CC[N+](C)(CC)CCOC(=O)C1c2ccccc2Oc2ccccc21 | inactive: 4.07% [at 35.3 µM] | –
COC(=O)Nc1nc2ccc(C(=O)c3ccccc3)cc2[nH]1 | – | inconclusive: 26.8 µM [rising, partial curve, poor fit]
O=[Se](O)O | – | inconclusive: 2.46 µM [rising, full curve]
O=C(Nc1cccc(Cl)c1)OCC#CCCl | – | inconclusive: 15.5 µM
C1CC(COCC2CO2)CCC1COCC1CO1 (stereo not given) | – | inconclusive: 24.5 µM [rising, partial curve]
CC(=O)[C@H]1CC[C@H]2[C@@H]3CCC4=CC(=O)CC[C@]4(C)[C@H]3CC[C@]12C | – | inconclusive: 24.4 µM [rising, partial curve] and inconclusive: 21.9 µM [rising, partial curve]
CC(CN(C)C)CN1c2ccccc2CCc2ccccc21 (stereo not given) | inconclusive: -5.98% [at 35.3 µM] | –
CCC(OCCCOC)OC(C)=O (stereo not given) | inactive: 0.904% | –
O=C(CCCCCCCCC#CI)Oc1ccccc1 | – | inconclusive: 19 µM [rising, partial curve]

SMILES | activation | Potency
COC(=O)c1ccccc1C(=O)O | inactive: 0.852% | –
COc1cc(C)ccc1O | inactive: -1.95% | –
CCCCCCCCCCCCCC[n+]1ccccc1 | – | inconclusive: 21.9 µM [rising, full curve]
CNc1ccc(O)cc1 | – | inconclusive: 54.8 µM [fluorescent]
Cc1ccc(N)cc1O | inconclusive: 12.8% | –
CC(O)c1ccccc1 (stereo not given) | inactive: -0.25% | –
CCN1/C(=C/C=C/c2sc3ccccc3[n+]2CC)Sc2ccccc21 | – | inconclusive: 11.7 µM [rising, single point]
CC(C)(C)CC(C)(C)c1ccc(O)c(-n2nc3ccccc3n2)c1 | – | inconclusive: 55.7 µM
Clc1cc(Cl)nc(Cl)n1 | inactive: 2.9% | –
NC(=O)OCC(COC(N)=O)c1ccccc1 | – | inactive
CCC(C)(C)C(=O)O[C@H]1C[C@@H](C)C=C2C=C[C@H](C)[C@H](CC[C@@H]3C[C@@H](O)CC(=O)O3)[C@H]21 | – | inconclusive: 30.1 µM [rising, partial curve, poor fit]
CNS(=O)(=O)c1cc(C(=O)N2CCC(CCN3C4CCC3CC(n3c(C)nc5ccccc53)C4)(c3cccc(F)c3)CC2)c(Cl)cc1F (stereo not given) | – | inconclusive: 6.92 µM [rising, partial curve]
C=CCc1ccccc1OCC(O)CNC(C)C (stereo not given) | inactive: 0.881% [at 35.3 µM] | –
COc1ccc2sc(C(=O)Nc3nnn[nH]3)c(OC(C)C)c2c1 | – | inconclusive: 3.88 µM
CNC[C@H](O)[C@@H](O)[C@H](O)[C@H](O)CO | – | inactive
CCC1NC(=O)c2cc(S(N)(=O)=O)c(Cl)cc2N1 (stereo not given) | inactive: 0.607% [at 35.3 µM] | –
CCOC(=O)c1ccc(C#Cc2ccc3c(c2)C(C)(C)CCS3)nc1 | – | inconclusive: 26.8 µM [activator, partial curve, poor fit]
CC1CCC(C(C)CS)CC1S (stereo not given) | – | inconclusive: 49 µM [falling, single point]
O=C1OC(c2ccc(O)cc2)(c2ccc(O)cc2)c2ccccc21 | – | inconclusive: 26.8 µM [falling, single point]

Same assay, conditions: SBE-bla HEK293T, TGF-beta/Smad beta-lactamase reporter, 5 h; at 35.3 µM (top of the series)

SMILES | activation
Cc1cc(=O)oc2cc(O)ccc12 | inconclusive: 16.3%

Same assay, conditions: SBE-bla HEK293T, TGF-beta/Smad beta-lactamase reporter, 5 h; at 76.8 µM (top of the series)

SMILES | activation
Cc1cc(=O)oc2cc(O)ccc12 | inconclusive: 20.6%
